The values below come from patent EP4209511A1.

This experiment deals with T1, Human CD84 produced by mammalian cells (human) (UniProt Q9UIB8).
T1 sequence (looked up): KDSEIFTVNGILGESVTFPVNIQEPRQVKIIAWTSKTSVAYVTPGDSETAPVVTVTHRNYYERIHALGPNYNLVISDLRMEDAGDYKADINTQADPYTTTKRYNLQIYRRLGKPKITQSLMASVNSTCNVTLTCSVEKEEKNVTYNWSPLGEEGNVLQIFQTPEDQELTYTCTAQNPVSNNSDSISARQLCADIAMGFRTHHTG
The experiment in a line: monoclonal phage ELISA, plate coated with CD84 antigen, anti-phage HRP antibody.

B1: R3-B3 (scFv)
scFv: [about 100 residues left out]WDCSDGRCYWAYWGQGTLVTVSSGGGGSGGGGSGGGGSGGGGASQPVLTQPPSVSVAPGQTARISCGGDNIESKDVHWYQRKSGQAPVLVVHDDADRPTGIPDRFSGSNSGNTATLTISRVEAGDEADYYCQVWDSSSDHVVFGGGTQLTVL
Regarding B1, the ELISA signal on antigen (Ag), read at 450 nm (absorbance at 450 nm) was 0.506.
